Measured values from paper PMC4336329 (PLoS ONE, 2015).
Out of some 310,000 compounds screened, about 2,200 (0.71%) showed an effect of 50% or more. Effects have a minus sign here. Some of the results follow.

Molecular target: human ether-à-go-go-related gene (hERG) potassium channel (human, UniProt Q12809)
Test: primary screen, population patch clamp on CHO cells stably expressing hERG

Sequence of human ether-à-go-go-related gene (hERG) potassium channel (Q12809 whole entry, looked up): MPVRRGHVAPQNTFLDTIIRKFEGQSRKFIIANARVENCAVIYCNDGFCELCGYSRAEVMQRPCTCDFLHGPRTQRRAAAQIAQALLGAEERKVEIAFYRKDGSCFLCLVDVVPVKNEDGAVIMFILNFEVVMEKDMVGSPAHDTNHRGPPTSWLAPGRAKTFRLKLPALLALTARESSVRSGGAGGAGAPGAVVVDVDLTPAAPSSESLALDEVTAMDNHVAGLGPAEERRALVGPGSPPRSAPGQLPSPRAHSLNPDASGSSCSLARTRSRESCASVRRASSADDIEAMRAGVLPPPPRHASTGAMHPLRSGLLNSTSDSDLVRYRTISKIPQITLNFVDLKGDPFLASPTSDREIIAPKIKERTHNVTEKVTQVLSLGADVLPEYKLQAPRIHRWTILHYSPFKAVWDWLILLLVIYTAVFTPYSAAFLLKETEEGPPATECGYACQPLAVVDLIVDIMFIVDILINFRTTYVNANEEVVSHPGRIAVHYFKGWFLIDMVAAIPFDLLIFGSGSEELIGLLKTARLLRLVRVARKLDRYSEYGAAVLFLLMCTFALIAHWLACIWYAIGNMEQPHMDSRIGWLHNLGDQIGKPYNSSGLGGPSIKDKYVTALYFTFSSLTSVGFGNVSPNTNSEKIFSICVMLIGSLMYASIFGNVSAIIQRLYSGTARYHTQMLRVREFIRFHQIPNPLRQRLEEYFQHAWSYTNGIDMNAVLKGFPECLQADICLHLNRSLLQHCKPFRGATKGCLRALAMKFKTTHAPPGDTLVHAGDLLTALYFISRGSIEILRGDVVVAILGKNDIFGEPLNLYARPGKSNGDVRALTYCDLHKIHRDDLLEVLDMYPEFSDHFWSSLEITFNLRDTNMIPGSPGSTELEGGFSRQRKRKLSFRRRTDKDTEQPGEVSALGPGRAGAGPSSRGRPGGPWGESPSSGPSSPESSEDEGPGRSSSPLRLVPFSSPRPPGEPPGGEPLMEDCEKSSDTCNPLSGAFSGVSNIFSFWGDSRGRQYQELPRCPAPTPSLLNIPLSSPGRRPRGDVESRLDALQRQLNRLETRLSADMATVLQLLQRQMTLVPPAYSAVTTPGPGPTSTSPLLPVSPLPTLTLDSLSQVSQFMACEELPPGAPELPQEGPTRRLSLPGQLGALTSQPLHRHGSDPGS

| Structure (SMILES) | hERG current change (%, negative = inhibition) at 1uM |
| --- | --- |
| COc1cccc(/C(C#N)=C/c2c(-c3ccc(Cl)cc3)nc3c(C)cccn23)c1 | 16.7% |
| O=C(NC1CC1)c1cccc(NC(=O)c2cn3ccccc3n2)c1 | -5.66% |
| CSc1ncccc1C(=O)NNC(=O)c1ccc(NS(=O)(=O)c2cccs2)cc1 | 12.2% |
| Cc1ccc(CC(=O)NC(C)CCc2ccccc2)cc1 (centres unmarked) | 8.53% |
| Cc1cccc(-n2nnc(C(=O)NCc3ccccc3Cl)c2N)c1 | 4.35% |
| COc1ccc(NC(=O)C(C)N(C)Cc2ccc3ccccc3c2)cc1 (centres unmarked) | -4.45% |
| O=C(CO/N=C/c1ccccc1O)NNC(=O)c1ccccc1Cl | 15.3% |
| Cn1c(=O)c2cnc(-c3ccc(C(F)(F)F)cc3)nc2n(C)c1=O | 24.2% |
| COc1ccc2c(c1)c(C(=O)N/N=C/c1cccs1)c(C)n2C | 6.59% |
| CC(=O)NS(=O)(=O)c1ccc(NC(=O)c2cc3c(=O)n4ccccc4nc3s2)cc1 | 3.59% |
| NC(=O)NC(=O)COC(=O)CNS(=O)(=O)c1ccc(F)c(F)c1F | 12.2% |
| CCc1ccc(-c2nc(CS(=O)CC(=O)O)c(C)o2)cc1 (centres unmarked) | 9.1% |
| Cc1cccc(N2CCN(C(=O)c3ccnn3C)CC2)c1C | 10.4% |
| C/C(=N\NC(=O)c1ccc(Cl)cc1)c1ccccn1 | 8.17% |
| CCc1cc(=O)oc2cc(C)cc(OCC(=O)NCCN3CCOCC3)c12 | 10.8% |
| Cc1ccc(Nc2nc(Oc3ccc(=O)[nH]n3)nc(N(C)C)n2)cc1 | 0.276% |
| O=C(O)c1cccc(S(=O)(=O)N2CC=C(c3ccccc3)CC2)c1 | 2.39% |
| O=C(C[n+]1ccccc1)Nc1ccccc1C(=O)O.[Cl-] | -1.28% |
| O=C(CCN1C(=O)/C(=C/c2ccc(F)cc2)SC1=S)NNC(=O)c1ccncc1 | 9.23% |

| Structure (SMILES) | hERG current change (%, negative = inhibition) at 1uM |
| --- | --- |
| O=C(CSc1nc(-c2ccccc2)cs1)N1CCc2ccccc21 | -0.264% |
| CCC1CCCCN1C(=O)COc1ccc(N(C)S(=O)(=O)c2ccc(C)cc2)cc1 (centres unmarked) | 8.11% |
| N#C/C(=C\c1cccnc1)C(=O)NC1CCCCC1 | 14.1% |
| Cc1c(N=Cc2ccc(-c3ccc(Cl)cc3)o2)c(=O)n(-c2ccccc2)n1C | 7.88% |
| O=S(=O)(c1cccs1)n1nnc2ccccc21 | 16.9% |
| COc1ccc(CCN(C)C(=O)CNC(=O)Cc2cccc3ccccc23)cc1OC | 2.44% |
| COc1ccc(CCNC(=O)CN(C)S(=O)(=O)c2ccc3c(c2)CCC(=O)N3)cc1OC | 13.8% |
| COc1ccc(Nc2oc(-c3ccccc3)nc2C#N)cc1 | 9.51% |
| Cc1cc(C)cc(N(C(=O)Cc2cccs2)C(C(=O)NC2CCCC2)c2ccc(C)o2)c1 (centres unmarked) | 2.72% |
| COc1ccc(OC)c(NC(=O)C2CCCN(S(=O)(=O)c3cccc4cccnc34)C2)c1 (centres unmarked) | 11.1% |
| CC1(C)C(CO)=CC(=O)C2=C1SCC(=O)N2 | -13.1% |
| COc1cc(/C=C2\SC(=S)N(N3CCOCC3)C2=O)cc(OC)c1OC | 13.7% |
| COc1ccccc1C1NC(=O)NC(C)=C1C(=O)Nc1cccc(C)c1C (centres unmarked) | 13.1% |
| COc1ccc2ccccc2c1/C=N/NC(=O)c1ccccc1F | 7.02% |
| COc1cccc(CN2CCN(C3CCN(c4ccccc4C)CC3)CC2CCO)c1 (centres unmarked) | -30.4% |
| O=C(COC(=O)C1CCN(S(=O)(=O)c2ccccc2C(F)(F)F)CC1)NCc1ccc(F)cc1 | 9.09% |
| COc1ccc(C(C(=O)NCC2CCCO2)N(Cc2ccc(F)cc2)C(=O)CNC(=O)c2ccco2)cc1OC (centres unmarked) | 16.4% |
| O=C(CC12CC3CC(CC(C3)C1)C2)N/N=C/c1ccc([N+](=O)[O-])o1 | -2.93% |
| CN1CCN(C(CNS(=O)(=O)c2ccc(Br)cc2)c2ccc3c(c2)OCO3)CC1 (centres unmarked) | -59.5% |

| Structure (SMILES) | hERG current change (%, negative = inhibition) at 1uM |
| --- | --- |
| CCCn1c(CNC(=O)c2ccccc2)nc2ccccc21 | -3.44% |
| O=C(Nc1cccc(Br)c1)c1ccc2snnc2c1 | 11.9% |
| COc1ccc(OCC(=O)N2CCN(C(=O)c3ccc(F)cc3)CC2)cc1 | -10.8% |
| O=c1[nH]c2ccc(NC(=S)Nc3ccc(Cl)cc3Cl)cc2[nH]1 | -1.31% |
| Cn1c(COc2ccc(F)cc2)nc2ccccc21 | 9.65% |
| O=C(O)c1ccc(-n2nnnc2Oc2ccccc2C(=O)N2CCOCC2)cc1 | 7.38% |
| Cc1cc(NC(=O)COC(=O)C2CC(=O)N(c3ccccc3Cl)C2)no1 (centres unmarked) | 17.8% |
| COc1ccc(C(=O)COC(=O)CCN=C2NS(=O)(=O)c3ccccc32)c(OC)c1 | -4.54% |
| O=C1CSC(c2ccc(F)cc2)N1c1ccccc1F (centres unmarked) | 3.81% |
| O=C(Nc1ccccc1N1CCCCC1)c1cccc([N+](=O)[O-])c1 | 9.68% |
| Cc1nc2c3ccccc3nc(NNC(=O)CCC(=O)N3CCN(c4ccccc4)CC3)n2n1 | 11.7% |
| COCCN(Cc1ccccc1)C(=O)C1CCN(S(=O)(=O)c2ccc(OC)c(OC)c2)CC1 | 8.5% |
| Cl.Clc1ccc(CNCCCSc2ncccn2)cc1 | 7.51% |
| Cc1ccc(CONC(=O)c2ccc(C)cc2)cc1 | 8.7% |
| Cc1cn(-c2ccc(Br)cc2)[nH]c1=O | 10.8% |
| CC(C)CC[n+]1ccn(-c2nc3ccccc3nc2[N-]S(=O)(=O)c2ccc(Cl)cc2)c1 | 13% |
| CCCCOC(=O)Nc1ccccc1C(=O)N1CCCC1 | 5.99% |
| Cc1ccc(NC(=O)C2CC=CCC2C(=O)N2CCCCC2)cc1 (centres unmarked) | 0.464% |
